Reference: the supplement of paper PMC3334620
The full ranking holds about 33,000 sequences; the median of “E-score (-0.5 to 0.5)” is about -0.04, and the highest 2% start at about 0.36. The list shows a part of the results.

target: T1, Hmlalpha2 (UniProt P0CY09); test: PBM E-score (8-mer binding enrichment) (E-score (-0.5 to 0.5)); higher = stronger / more preferred TF binding; most listed sequences are background and not binding sites; conditions: protein concentration: 200 nM; construct: GST-full length
T1 sequence: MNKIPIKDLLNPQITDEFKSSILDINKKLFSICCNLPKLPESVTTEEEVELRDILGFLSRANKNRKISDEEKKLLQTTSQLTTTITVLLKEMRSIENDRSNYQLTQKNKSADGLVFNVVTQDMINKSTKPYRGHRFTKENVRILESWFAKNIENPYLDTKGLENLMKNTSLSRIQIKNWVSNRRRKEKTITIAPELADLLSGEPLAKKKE
Procedure: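 Universal 'all 10-mer' protein binding microarrays (Agilent AMADID 015681) probed with GST-tagged S. cerevisiae TFs (full-length or DBD) made by in vitro transcription/translation (PURExpress), about 100-200 nM. Bound TF was detected with fluorescent anti-GST. Each ungapped 8-mer (which stands for itself and its reverse complement) is scored by the PBM enrichment score (E-score), a modified Wilcoxon-Mann-Whitney statistic from -0.5 to +0.5, computed with the Universal PBM Analysis Suite. Scale: above 0.35 generally sequence-specific binding.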

| Sequence | PBM E-score |
| --- | --- |
| CGCTGATA | 0.0671 |
| ACGGCTGG | -0.289 |
| ACTGGCCT | -0.219 |
| TAAATATA | 0.234 |
| GCTTGGCA | -0.0531 |
| ACGACAAG | 0.0416 |
| GACAGTCC | -0.233 |
| GTCAAAAA | 0.0961 |
| CTTCGAGA | -0.125 |
| CCTAGTCA | -0.23 |
| AAAGTGAC | 0.0152 |
| GTATGGCA | 0.0125 |
| GTCAGCTA | -0.0726 |
| ATGCCACG | -0.07 |
| CAGTATCA | -0.157 |
| AGAGGCAC | -0.189 |
| CAGTTCAC | 0.104 |
| GTGCGCGA | -0.198 |
| CACACAAA | 0.126 |
| ATTAACAG | 0.261 |
| ATATTGTG | 0.136 |
| TAACTGAA | 0.016 |

| Sequence | PBM E-score |
| --- | --- |
| CTGAGCTA | -0.0256 |
| TTAGAAAA | 0.0398 |
| ACTTTTCG | 0.0146 |
| ACCACGGA | -0.171 |
| GCAGTGCA | -0.146 |
| CACTTGTA | 0.213 |
| CCTGGCAG | -0.147 |
| CCGTGGAA | -0.0844 |
| ACTGCAAA | 0.0453 |
| TATGCTGA | 0.0494 |
| CCCTAACC | -0.295 |
| CCTACTAA | -0.0964 |
| TGCGAGAA | -0.206 |
| CCGGTTCC | -0.243 |
| ACTTATCG | -0.274 |
| CGAGCCCG | -0.15 |
| CAACATTA | 0.293 |
| ACCACTCT | -0.283 |
| ACGTCGAC | 0.136 |
| ATACCAAG | 0.149 |
| ACTCCTAC | -0.0242 |
| AGACTCGG | -0.282 |

| Sequence | PBM E-score |
| --- | --- |
| CTGCCCAC | -0.0615 |
| GCATAAGC | 0.119 |
| CCCAGAGA | -0.25 |
| ACCATACC | -0.367 |
| AATATACC | -0.0669 |
| CATGTGTC | 0.152 |
| AAGTGGGC | -0.0131 |
| ACGAGGAG | -0.089 |
| AAAAGTTT | 0.0603 |
| CCCTACGA | -0.0973 |
| CGACCTCA | -0.0691 |
| ATGAACCA | 0.162 |
| ATCAGCAT | 0.155 |
| AGGGTCTG | -0.296 |
| GATTGACA | 0.293 |
| AGTCTAAT | 0.118 |
| CCTGTGCA | -0.00896 |
| CAGACCAG | -0.167 |
| CCAAAGAA | -0.0602 |
| AGACATTC | 0.0901 |
| AGTACCGA | -0.2 |
| AGAGCGCC | -0.0601 |

| Sequence | PBM E-score |
| --- | --- |
| CCACAGGC | -0.337 |
| GCCACAAC | 0.076 |
| AAGCCCGC | -0.159 |
| GACTGATC | 0.0656 |
| AGCCATCG | -0.171 |
| GATTGACC | -0.0676 |
| ACGAGCCA | 0.0562 |
| ATAGATAA | -0.0423 |
| ACTCGACC | -0.0795 |
| CACTGTAG | 0.172 |
| CAGCACTG | -0.243 |
| GGCAAGGA | -0.139 |
| CCGGTAAA | -0.0308 |
| AAGAGAGC | -0.247 |
| AAGTCGCA | 0.0216 |
| CCATAAGC | -0.206 |
| ATGGCGCC | -0.249 |
| AGACGGCA | -0.244 |
| TATGTCAA | 0.426 |
| CCGATCCG | -0.204 |
| AATCGCGA | -0.0775 |
| AAGCGGGC | -0.371 |

| Sequence | PBM E-score |
| --- | --- |
| CCTATCGC | -0.169 |
| ATACCTCG | 0.112 |
| AAATTGTT | 0.109 |
| CCACGCAC | -0.0131 |
| ATATGGTC | -0.00104 |
| ATCTGCCA | -0.149 |
| CTCGCTTA | -0.0641 |
| GGAGGGCC | -0.247 |
| CTGACCTA | -0.0658 |
| ACCACACA | 0.215 |
| ATGATTGA | 0.113 |
| ATAACCTG | -0.0623 |
| ACAGCTGC | -0.0756 |
| CATTGTAA | 0.364 |
| ACCGCTGC | -0.138 |
| ACGACTCC | -0.141 |
| CATCATGA | 0.0884 |
| AACCGCAG | -0.283 |
| AGCTGAAT | -0.108 |
| CATCAGTA | -0.027 |
| CCTAACGC | 0.163 |
| CACTGTTA | 0.0828 |
